The test system of one experiment is deafness 1555G ribosomes. As to the kind of experiment: Ribosomal drug susceptibility (MIC) of recombinant bacteria. More on the design: MIC, deafness 1555G ribosomes: unit not given beside the values. Particulars: for MIC, deafness 1555G ribosomes: Table 7, 72 h incubation; for MIC, bacteria with deafness 1555G ribosome: Table 10. The text has this:
(§1) A single rRNA allelic strain of Mycobacteriumn smegmatis was used for rRNA mutagenesis (Sander et al., Mol. Microbiol. 1996, 22:841-848). Key nucleotides which distinguish the prokaryotic from the eukaryotic decoding site are rRNA positions 1408 (bacterial ribosome: A, eukaryotic cytosolic ribosomes: G) and 1491 (bacterial ribosomes: G, eukaryotic cytosolic ribosomes: A, eukaryotic mitochondrial ribosomes).
(§2) Various versions of the eukaryotic drug binding site were transplanted into the bacterial ribosome (WO 2008/092690) to result in hybrid ribosomes, termed mitohybrid ribosomes, cytohybrid ribosomes, deafness 1555G ribosomes, deafness 1494U ribosomes (for methodology, rationale and hybrid ribosomes used, see Hobbie et al., Nucleic Acids Res. 2007, 35:6086-6093; Proc. Natl. Acad. Sci. USA 2008, 105:3244-3249; Proc. Natl. Acad. Sci. USA 2008, 105:20888-20893).
(§3) Ribosomal drug susceptibility was studied by measuring the minimal inhibitory concentrations, as described in Pfister et al., Animicrob. Agents Chemother. 2003, 47:1496-1502. The recombinants carrying the respective mutational alterations were subjected to determinations of minimal inhibitory concentrations (MIC) to assess ribosomal drug susceptibility.
(§4) For further detail on methodology see description in Example 7.

The subject of a further experiment is deafness 1494U ribosomes. Described as above. Set-up: MIC, deafness 1494U ribosombes: unit not given beside the values. The following applies: for MIC, deafness 1494U ribosombes: Table 7, 72 h incubation; for MIC, bacteria with deafness 1494U ribosome: Table 10.
Text: as §1, §2, §3, §4

Turning to `CNC1C(OC2OC(CO)C(N)C(O)C2O)OC2CC(N)C(OC3C(N)CC(N)C(O)C3O)OC2C1O` (stereo not drawn) [Apramycin], in the experiment on deafness 1555G ribosomes, the “MIC, deafness 1555G ribosomes” value worked out at 1024 and the “MIC, bacteria with deafness 1555G ribosome” value is >256.0 µg/mL. Also, in the experiment on deafness 1494U ribosomes, the “MIC, deafness 1494U ribosombes” value is on record as 1024 and the “MIC, bacteria with deafness 1494U ribosome” value is >256.0 µg/mL.
For the compound `NC[C@H]1O[C@H](O[C@H]2[C@H](O)[C@@H](O[C@H]3O[C@H](CO)[C@@H](O)[C@H](N)[C@H]3O)[C@H](N)C[C@@H]2N)[C@H](N)C[C@@H]1O` [Tobramycin], the “MIC, deafness 1555G ribosomes” value in the experiment with deafness 1555G ribosomes was 16. Moreover, the “MIC, deafness 1494U ribosombes” value in the experiment on deafness 1494U ribosomes is reported as 16.
In the case of `CC(=O)O.CC(=O)O.CC(=O)O.CC(=O)O.CNC1C(OC2OC(CO)C(N)C(O)C2O)OC2CC(NC(=O)C(O)CCN3C(=O)c4ccccc4C3=O)C(OC3C(N)CC(N)C(O)C3O)OC2C1O` (stereo not drawn) [ETH 103], the “MIC, bacteria with deafness 1555G ribosome” value in the experiment on deafness 1555G ribosomes is >256.0 µg/mL. The “MIC, bacteria with deafness 1494U ribosome” value with deafness 1494U ribosomes was >256.0 µg/mL.
In the case of `CC(=O)O.CC(=O)O.CC(=O)O.CC(=O)O.CN[C@@H]1[C@@H](O[C@H]2O[C@H](CO)[C@@H](N)[C@H](O)[C@H]2O)O[C@H]2C[C@@H](NC(=O)[C@@H](O)CCN)[C@@H](O[C@H]3[C@H](O)[C@@H](O)[C@H](N)C[C@@H]3N)O[C@@H]2[C@@H]1O` [ETH 100, 2′-N-[(2S)-4-Amino-2-hydroxybutyryl]apramycin tetraacetate], the “MIC, bacteria with deafness 1555G ribosome” value in the experiment on deafness 1555G ribosomes is >256.0 µg/mL. In addition, the “MIC, bacteria with deafness 1494U ribosome” value with deafness 1494U ribosomes was >256.0 µg/mL.
With Gentamicin, the “MIC, deafness 1555G ribosomes” value in the experiment with deafness 1555G ribosomes turned out to be 16. The “MIC, deafness 1494U ribosombes” value in the experiment with deafness 1494U ribosomes is recorded as 16.
For `CNC1C(OC2OC(CO)C(NC(=O)C(O)CCN)C(O)C2O)OC2CC(N)C(OC3C(N)CC(N)C(O)C3O)OC2C1O` [ETH 105, 4″-N-[(2S)-4-Amino-2-hydroxybutyryl]apramycin], the “MIC, bacteria with deafness 1555G ribosome” value in the experiment on deafness 1555G ribosomes is >256.0 µg/mL. Also, the “MIC, bacteria with deafness 1494U ribosome” value in the experiment on deafness 1494U ribosomes is >256.0 µg/mL.
Regarding `CC(=O)O.CC(=O)O.CC(=O)O.CC(=O)O.CNC1C(OC2OC(CO)C(N)C(O)C2O)OC2CC(N)C(OC3C(N)CC(NC(=O)C(O)CCN)C(O)C3O)OC2C1O` [ETH 102, 1-N-[(2S)-4-Amino-2-hydroxybutyryl]apramycin tetraacetate], in the experiment with deafness 1555G ribosomes, the “MIC, bacteria with deafness 1555G ribosome” value is >256.0 µg/mL. Further, the “MIC, bacteria with deafness 1494U ribosome” value in the experiment on deafness 1494U ribosomes is >256.0 µg/mL.
Take Neomycin: the “MIC, deafness 1555G ribosomes” value with deafness 1555G ribosomes came out at 8. Further, the “MIC, deafness 1494U ribosombes” value with deafness 1494U ribosomes came out at 8.

Values taken from patent publication US9271993B2, “Treatment of bacterial infectious diseases” (priority 2010, dated 2016).
